# This is one part of the list.
# What was measured:
# Assay in all cases: glycan array binding signal (z-score within array); higher = stronger binding
# Conditions in all cases: glycan notation: IUPAC condensed, linker removed
# GalNAc(b1-4)Gal(b1-4)Glc = target: GalNAc(b1-4)Gal(b1-4)Glc
# Outline: (§1)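 Glycan array binding is given as a within-array Z-score, which can be read as non-binding when negative. The arrays, 3228 of them, came from the Consortium for Functional Glycomics database and were retained only where the protein sequence was available. Z-scores were averaged across arrays of the same protein sequence at different concentrations or buffers and across linkers.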
# GalNAc(b1-4)GlcNAc = target: GalNAc(b1-4)GlcNAc
# Outline: as §1
# [1] = target: GalNAc(b1-4)GlcNAc(b1-2)Man
# Outline: as §1
# [2] = target: GalNAc(b1-4)GlcNAc(b1-2)Man(a1-3)[GalNAc(b1-4)GlcNAc(b1-2)Man(a1-6)]Man(b1-4)GlcNAc(b1-4)GlcNAc
# Outline: as §1
# [3] = target: GalNAc(b1-4)GlcNAc(b1-3)GalNAc(b1-4)GlcNAc
# Outline: as §1
# GalNAc(b1-4)GlcNAc6S = target: GalNAc(b1-4)GlcNAc6S
# Outline: as §1
# GalNAc(b1-6)GalNAc = target: GalNAc(b1-6)GalNAc
# Outline: as §1
# GalNAc3S(b1-4)GlcNAc = target: GalNAc3S(b1-4)GlcNAc
# Outline: as §1
# GalNAc3S(b1-4)GlcNAc3S = target: GalNAc3S(b1-4)GlcNAc3S
# Outline: as §1
# [4] = target: GalNAc3S(b1-4)[Fuc(a1-3)]GlcNAc
# Outline: as §1
# GalNAc4S6S(b1-4)GlcNAc = target: GalNAc4S6S(b1-4)GlcNAc
# Outline: as §1
# GalNAc6S(b1-4)GlcNAc = target: GalNAc6S(b1-4)GlcNAc
# Outline: as §1
# Glc(a1-4)Glc = target: Glc(a1-4)Glc
# Outline: as §1
# [5] = target: Glc(a1-4)Glc(a1-4)Glc(a1-4)Glc
# Outline: as §1
# Glc(a1-6)Glc(a1-6)Glc = target: Glc(a1-6)Glc(a1-6)Glc
# Outline: as §1
# [6] = target: Glc(a1-6)Glc(a1-6)Glc(a1-6)Glc
# Outline: as §1
# Glc(b1-4)Glc = target: Glc(b1-4)Glc
# Outline: as §1
# Glc(b1-6)Glc = target: Glc(b1-6)Glc
# Outline: as §1
# GlcA(b1-3)Gal = target: GlcA(b1-3)Gal
# Outline: as §1
# GlcA(b1-3)GlcNAc = target: GlcA(b1-3)GlcNAc
# Outline: as §1
# GlcA(b1-6)Gal = target: GlcA(b1-6)Gal
# Outline: as §1
# [7] = target: GlcA3S(b1-3)Gal(b1-4)GlcNAc(b1-2)Man
# Outline: as §1
# [8] = target: GlcA3S(b1-3)Gal(b1-4)GlcNAc(b1-3)Gal(b1-4)Glc
# Outline: as §1
# [9] = target: GlcNAc(a1-3)Gal(b1-4)GlcNAc
# Outline: as §1
# [10] = target: GlcNAc(a1-4)Gal(b1-3)GlcNAc
# Outline: as §1
# [11] = target: GlcNAc(a1-4)Gal(b1-4)GalNAc
# Outline: as §1
# [12] = target: GlcNAc(a1-4)Gal(b1-4)GlcNAc
# Outline: as §1
# [13] = target: GlcNAc(a1-4)Gal(b1-4)GlcNAc(b1-3)Gal(b1-4)Glc
# Outline: as §1
# [14] = target: GlcNAc(a1-4)Gal(b1-4)GlcNAc(b1-3)Gal(b1-4)GlcNAc
# Outline: as §1
# [15] = target: GlcNAc(a1-4)Gal(b1-4)GlcNAc(b1-3)Gal(b1-4)GlcNAc(b1-3)Gal(b1-4)GlcNAc
# Outline: as §1
# [16] = target: GlcNAc(a1-4)Gal(b1-4)GlcNAc(b1-3)Gal(b1-4)[Fuc(a1-3)]GlcNAc(b1-3)Gal(b1-4)[Fuc(a1-3)]GlcNAc
# Outline: as §1
# [17] = target: GlcNAc(a1-6)Gal(b1-4)GlcNAc
# Outline: as §1
# [18] = target: GlcNAc(b1-2)Gal(b1-3)GalNAc
# Outline: as §1
# [19] = target: GlcNAc(b1-2)Man(a1-3)[GlcNAc(b1-2)Man(a1-6)]Man(b1-4)GlcNAc(b1-4)GlcNAc
# Outline: as §1
# [20] = target: GlcNAc(b1-2)Man(a1-3)[GlcNAc(b1-2)Man(a1-6)]Man(b1-4)GlcNAc(b1-4)[Fuc(a1-6)]GlcNAc
# Outline: as §1
# [21] = target: GlcNAc(b1-2)Man(a1-3)[GlcNAc(b1-4)][GlcNAc(b1-2)Man(a1-6)]Man(b1-4)GlcNAc(b1-4)GlcNAc
# Outline: as §1
# [22] = target: GlcNAc(b1-2)Man(a1-3)[GlcNAc(b1-4)][GlcNAc(b1-2)Man(a1-6)]Man(b1-4)GlcNAc(b1-4)[Fuc(a1-6)]GlcNAc
# Outline: as §1
# [23] = target: GlcNAc(b1-2)[GlcNAc(b1-4)]Man(a1-3)[GlcNAc(b1-2)Man(a1-6)]Man(b1-4)GlcNAc(b1-4)GlcNAc
# Outline: as §1
# [24] = target: GlcNAc(b1-2)[GlcNAc(b1-4)]Man(a1-3)[GlcNAc(b1-4)][GlcNAc(b1-2)Man(a1-6)]Man(b1-4)GlcNAc(b1-4)GlcNAc
# Outline: as §1
# [25] = target: GlcNAc(b1-2)[GlcNAc(b1-4)]Man(a1-3)[GlcNAc(b1-4)][GlcNAc(b1-2)[GlcNAc(b1-6)]Man(a1-6)]Man(b1-4)GlcNAc(b1-4)GlcNAc
# Outline: as §1
# [26] = target: GlcNAc(b1-2)[GlcNAc(b1-4)]Man(a1-3)[GlcNAc(b1-4)][GlcNAc(b1-2)[GlcNAc(b1-6)]Man(a1-6)]Man(b1-4)GlcNAc(b1-4)[Fuc(a1-6)]GlcNAc
# Outline: as §1
# [27] = target: GlcNAc(b1-2)[GlcNAc(b1-6)]Man(a1-6)[GlcNAc(b1-2)Man(a1-3)]Man(b1-4)GlcNAc(b1-4)GlcNAc
# Outline: as §1
# [28] = target: GlcNAc(b1-2)[GlcNAc(b1-6)]Man(a1-6)[GlcNAc(b1-2)Man(a1-3)]Man(b1-4)GlcNAc(b1-4)[Fuc(a1-6)]GlcNAc
# Outline: as §1
# [29] = target: GlcNAc(b1-2)[GlcNAc(b1-6)]Man(a1-6)[GlcNAc(b1-2)Man(a1-3)][GlcNAc(b1-4)]Man(b1-4)GlcNAc(b1-4)GlcNAc
# Outline: as §1
# [30] = target: GlcNAc(b1-2)[GlcNAc(b1-6)]Man(a1-6)[GlcNAc(b1-4)][GlcNAc(b1-2)Man(a1-3)]Man(b1-4)GlcNAc(b1-4)GlcNAc
# Outline: as §1
binder,measurement,setting,value
"PA-IL (Pseudomonas aeruginosa), Q05097 (protein) MAWKGEVLANNEAGQVTSIIYNPGDVITIVAAGWASYGPTQKWGPQGDREHPDQGLICHDAFCGALVMKIGNSGTIPVNTGLFRWVAPNNVQGAITLIYNDVPGTYGNNSGSFSVNIGKDQS",glycan array binding signal (z-score),GalNAc(b1-4)Gal(b1-4)Glc,-0.227
same,glycan array binding signal (z-score),GalNAc(b1-4)GlcNAc,-0.236
same,glycan array binding signal (z-score),[1],-0.237
same,glycan array binding signal (z-score),[2],-0.129
same,glycan array binding signal (z-score),[3],-0.247
same,glycan array binding signal (z-score),GalNAc(b1-4)GlcNAc6S,-0.229
same,glycan array binding signal (z-score),GalNAc(b1-6)GalNAc,-0.227
same,glycan array binding signal (z-score),GalNAc3S(b1-4)GlcNAc,-0.245
same,glycan array binding signal (z-score),GalNAc3S(b1-4)GlcNAc3S,-0.228
same,glycan array binding signal (z-score),[4],-0.216
same,glycan array binding signal (z-score),GalNAc4S6S(b1-4)GlcNAc,-0.233
same,glycan array binding signal (z-score),GalNAc6S(b1-4)GlcNAc,-0.226
same,glycan array binding signal (z-score),Glc(a1-4)Glc,-0.216
same,glycan array binding signal (z-score),[5],-0.204
same,glycan array binding signal (z-score),Glc(a1-6)Glc(a1-6)Glc,-0.232
same,glycan array binding signal (z-score),[6],-0.221
same,glycan array binding signal (z-score),Glc(b1-4)Glc,-0.225
same,glycan array binding signal (z-score),Glc(b1-6)Glc,-0.224
same,glycan array binding signal (z-score),GlcA(b1-3)Gal,-0.219
same,glycan array binding signal (z-score),GlcA(b1-3)GlcNAc,-0.228
same,glycan array binding signal (z-score),GlcA(b1-6)Gal,-0.2
same,glycan array binding signal (z-score),[7],-0.232
same,glycan array binding signal (z-score),[8],-0.239
same,glycan array binding signal (z-score),[9],-0.221
same,glycan array binding signal (z-score),[10],-0.233
same,glycan array binding signal (z-score),[11],-0.225
same,glycan array binding signal (z-score),[12],-0.226
same,glycan array binding signal (z-score),[13],-0.23
same,glycan array binding signal (z-score),[14],-0.221
same,glycan array binding signal (z-score),[15],-0.223
same,glycan array binding signal (z-score),[16],-0.203
same,glycan array binding signal (z-score),[17],-0.219
same,glycan array binding signal (z-score),[18],-0.23
same,glycan array binding signal (z-score),[19],-0.234
same,glycan array binding signal (z-score),[20],-0.214
same,glycan array binding signal (z-score),[21],-0.249
same,glycan array binding signal (z-score),[22],-0.239
same,glycan array binding signal (z-score),[23],-0.23
same,glycan array binding signal (z-score),[24],-0.229
same,glycan array binding signal (z-score),[25],-0.245
same,glycan array binding signal (z-score),[26],-0.244
same,glycan array binding signal (z-score),[27],-0.232
same,glycan array binding signal (z-score),[28],-0.217
same,glycan array binding signal (z-score),[29],-0.233
same,glycan array binding signal (z-score),[30],-0.253

# Source: the supplement of paper PMC8728848
